From PubChem BioAssay AID1240 (Sanford-Burnham Center for Chemical Genomics, 2008)
Among all 50,000 compounds or so, about 800 (1.6%) showed an effect of 50% or more. The list shows a part of the results.

Target: Bcl-2-like protein 10 (Homo sapiens) (UniProt Q9HD36)
Assay: Phenotype converters, Bcl-B/TR3 peptide binding displacement, primary biochemical FP (AID 1240);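 note: 0% = Bcl-B with tracer peptide and DMSO and 100% = tracer peptide lacking Bcl-B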
Conditions: GST-Bcl-B / FITC-TR3 peptide fluorescence polarization; stronger effect = higher value; compound at 3.75 mg/L

Sequence of UniProt Q9HD36 (Q9HD36 whole entry, looked up): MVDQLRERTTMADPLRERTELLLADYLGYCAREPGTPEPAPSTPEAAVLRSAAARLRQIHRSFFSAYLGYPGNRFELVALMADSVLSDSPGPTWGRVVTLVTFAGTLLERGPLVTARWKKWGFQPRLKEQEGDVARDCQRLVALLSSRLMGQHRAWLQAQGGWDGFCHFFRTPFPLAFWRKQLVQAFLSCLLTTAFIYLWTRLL

SMILES | displacement [%]
O=C(NN=C1CCCCC1)c1cccnc1 | 3.4
Cc1ccc(C(=O)N/C(=C/c2cccnc2)C(=O)N2CCCC2)cc1 | -8.9
CC(C)c1ccc(NC(=O)C(=O)NCC2CCNCC2)cc1 | 3.4
O=C(Nc1ccc(Cl)cc1Cl)c1nc2nc(-c3ccccc3)cc(C(F)(F)F)n2n1 | -6.7
O=[N+]([O-])c1ccccc1CN1CCN(Cc2cc(Br)ccc2O)CC1 | 7.1
CC(=O)NNC(=O)c1ccccc1[N+](=O)[O-] | 0.3
Cc1ccc(C(=O)Nc2c(C(C)C)cccc2C(C)C)cc1[N+](=O)[O-] | -0.7
CCC(Oc1ccccc1)C(=O)Nc1cc([N+](=O)[O-])ccc1C (stereo not drawn) | 2.1
CCOC(=O)c1c(-c2ccc(C)cc2)csc1NC(=O)CCCC(=O)O | 6.1
CC(C)COc1ccc(C(=O)Nc2ccc([N+](=O)[O-])cc2Cl)cc1 | -9.1
Cc1cc(C)c2c(c1)=C(c1sc(=S)[nH]c1O)C(=O)N=2 | 15
CC(C)(C)NC(=O)c1cc(NC(=O)Cc2ccccc2)cc(NC(=O)Cc2ccccc2)c1 | -2.2
Cc1c(OCC(=O)OC(C)(C)C)ccc2c(-c3ccccc3)cc(=O)oc12 | 10.7
CC(C)OP(=O)(OC(C)C)C(Nc1ccc(Br)cc1)c1ccc(O)cc1 (stereo not drawn) | -13.8
CCN(CC)c1ccc(N2C(=O)/C(=C/c3ccc(OC)cc3)SC2=S)cc1 | -13.1
CCc1cc(=O)oc2cc(OC)ccc12 | -3.9
CC1=CC(C)(C)N(C(=S)NC(=O)c2ccccc2)c2ccccc21 | 5.2
Cc1ccc(NC(=O)C2CC(=O)N(c3cc(C)ccc3C)C2)cc1 (stereo not drawn) | -9.3
COc1ccc(-c2cc(-c3ccc(Cl)cc3)c(C#N)c(N)n2)cc1 | 6.4
C=CCN1C(=O)/C(=C\c2cn(CCOc3cccc(OC)c3)c3ccccc23)SC1=S | 91.7
O=C(O)C1C2CCC(C2)C1C(=O)Nc1nc(-c2ccc(F)cc2F)cs1 (stereo not drawn) | 0.3
COc1ccc(NC(=O)c2cc([N+](=O)[O-])ccc2Cl)c(OC)c1 | 15.9
CCc1cc2c(=O)c(-c3nc4ccccc4s3)coc2c(CN2CCOCC2)c1O | 1

SMILES | displacement [%]
O=C(c1cc(Cl)ccc1Cl)n1nnc2ccccc21 | 11.9
O=[N+]([O-])c1ccccc1S(=O)(=O)Nc1ccc(Cl)c(C(F)(F)F)c1 | 4.1
COc1ccc2c(=O)c(Oc3ccc(C(C)(C)C)cc3)coc2c1 | 11.4
FC(F)(F)c1ccccc1CN1CCN(Cc2ccncc2)CC1 | -6
CCOc1cc(C=O)ccc1OCc1ccccc1 | 11.6
O=S1(=O)CCC(N2CCCCC2)C1 (stereo not drawn) | 3.2
CCc1cc2c(N3CCN(Cc4ccc(Cl)cc4Cl)CC3)ncnc2s1 | 3.8
COc1ccc(C(=O)NNC(=O)c2ccc(OC)cc2OC)cc1 | -5
Cc1cc(C)nc(NS(=O)(=O)c2ccc(NC(=O)COc3ccc4ccccc4c3)cc2)n1 | 10.9
Cn1c2ccccc2c2cc(C3Nc4ccccc4C(=O)N3Cc3ccco3)ccc21 (stereo not drawn) | 10.3
COC(=O)c1sc(NC(=O)C2CCCCC2)c(C#N)c1C | -3
COc1cc(/C=N\NC(=O)c2ccc(Br)cc2)ccc1OC(=O)c1cccc2ccccc12 | 5.3
Cc1ccc(/C=C2\NC(=O)c3ccccc3C2=O)cc1 | 18.4
CCOc1ccccc1OCCCCN1CCCCC1 | 7
Cc1cccc(C(=O)Nc2sc3c(c2C(=O)O)CCC3)c1 | -3.6
C/C(=N\N=C1\NC(=O)C(CC(=O)Nc2ccc(Cl)cc2Cl)S1)c1ccc(F)cc1 (stereo not drawn) | 10.5
COc1ccc(NC(=O)CN(c2cccc([N+](=O)[O-])c2)S(=O)(=O)c2ccccc2)c(OC)c1 | 11.6
CCOc1ccc(C(=O)Nc2ccc(O)c(-c3nc4ccccc4s3)c2)cc1Br | 12.2
Cc1ccc(CNC(=O)C(=O)Nc2ccc(F)cc2)cc1 | -5.3
Cc1cccc2c1nc1s/c(=C\c3cc4c(cc3Cl)OCO4)c(=O)n12 | 46
O=C(O)CCN1C(=O)/C(=C\C(Cl)=C/c2ccc([N+](=O)[O-])cc2)SC1=S | 14.6
Cc1nnc(SCC(=O)Nc2ccccc2[N+](=O)[O-])[nH]c1=O | 16.4
O=c1nc2s/c(=C\c3cn(-c4ccccc4)nc3-c3cccc([N+](=O)[O-])c3)c(=O)n2nc1Cc1ccccc1 | 47.2

SMILES | displacement [%]
O=S(=O)(c1ccc(-c2csc(Nc3ccc(F)cc3)n2)cc1)N1CCOCC1 | 11.5
CC1(C)C(=O)N(Cc2ccccc2)c2ccccc2N1C(=O)c1ccc(Cl)cc1 | 3
CC(C)c1ccc(N2C(=O)NC(=O)/C(=C/c3ccc(O)c(Br)c3)C2=O)cc1 | -17.8
COC(=O)c1ccc(C(=O)OC)c(NS(=O)(=O)c2cc(Cl)ccc2Cl)c1 | -10.3
CN(C)c1ccc(NC(=O)/C=C/c2ccccc2Cl)cc1 | 3.2
Cc1ccc(-c2nc3cc(NCc4ccc5c(c4)OCO5)ccc3o2)cc1 | -6.3
Clc1ccc(/C=N/N=C(c2ccccc2)c2ccccc2)s1 | 3.6
Cc1ccc(C(=O)c2coc3c2C(=O)c2ccccc2C3=O)cc1 | -9.6
N#Cc1ccc(-c2cc(C(=O)O)c3c(ccc4ccccc43)n2)cc1 | -1.7
COc1ccc(C(=O)/C=C/c2ccc3c(c2)OCO3)cc1OC | 2.1
CCOC(=O)c1c(N)sc(C(=O)NC2CCCCC2)c1C | 5.3
Cc1ccc(O)c(Nc2c([N+](=O)[O-])c(=O)oc3ccccc23)c1 | 12.4
CC1CCN(C(=O)CSCc2cccc(Br)c2)CC1 | -0.7
Cc1ccc(OCC(=O)N2CCCc3ccccc32)c(C)c1 | 6
CCOc1ccc(C(=O)Nc2cc(-c3nc4ccc(C)cc4o3)ccc2Cl)cc1[N+](=O)[O-] | 2.3
COC(=O)c1c(-c2ccc(F)cc2)csc1NC(=O)CCC(=O)O | 13.5
CCCOc1cccc(C(=O)Nc2cccc(C(=O)Nc3ccccc3C(=O)O)c2)c1 | 10.7
Fc1ccc(NC(=S)NCc2cccnc2)cc1 | -6.5
Cc1nn(C(=O)CCN2C(=O)c3ccccc3C2=O)c(C)c1Br | -3.9
COc1ccccc1/C=C/C=N/NC(=O)c1cc(-c2ccc(C)cc2)n[nH]1 | -11.4
CCc1c(C)c2cc([N+](=O)[O-])c(O)c(C)c2oc1=O | -6
COc1ccc(OC)c(/C=C2\NC(=S)N(c3ccccc3)C2=O)c1 | 62.3
